Data: PubChem BioAssay AID651567 (National Center for Advancing Translational Sciences (NCATS), 2012)
The campaign covered roughly 1,200 compounds. About 10 (0.8%) were called active. Roughly 4% stayed inconclusive and do not appear here. The call rests on the fitted dose curve; in most records, active means well fitted inhibition curve with a large enough effect; inconclusive means small, poorly fitted or top-dose-only effect; inactive means no such curve, though single readings can be large or run the other way. The list shows a part of the results.

assay: qHTS Assay to Find Inhibitors of Chronic Active B-Cell Receptor Signaling: Hit Validation in OCI-Ly3 Assay; settings: OCI-Ly3 IkB-luciferase reporter, Chroma-Glo luminescence, 4 h; series mostly up to 46.1 µM; activity change, negative = inhibition: at the top concentration
Method in brief: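 OCI-Ly3 cells in IMDM with 0.5% FBS get compound plus 80ng/ml doxycycline (dispensed solution), 4 hrs at 37C. Chroma-Glo read of green IkB-luc and red unfused luc; green/red ratio normalized to basal (0%) and 10 uM MG-132 (100%); concentration-response curves for each signal.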
On the % scale 0 is the no-effect control and ±100 the full control effect.

Activity change, negative = inhibition, inactive:
CN(CC(=O)Nc1ccccc1C(F)(F)F)C(=O)c1ccccc1Sc1ccccc1C#N 0.0132%
N=C1SCC(=O)N1c1ncc(Cc2cccc(Cl)c2)s1 27.2%
CCN(CC)c1ccc(-c2nn3c(-c4ccccc4OC)nnc3s2)cc1 -2.37%
CN(C)NC(=S)NC(=O)C12CC3CC(CC(C3)C1)C2 0.0112%
Nc1ncnc2c1ncn2[C@@H]1O[C@H](CNCc2cccc(C#Cc3ccccc3)c2)[C@@H](O)[C@H]1O -0.0698%
CCOC(=O)c1ccccc1NC(=O)Cn1c(-c2nonc2N)nc2ccccc21 -3.47%
CCN(CC)S(=O)(=O)c1ccc2c(c1)c(=O)c(C(=O)NCCc1ccc(OC)c(OC)c1)cn2C -0.826%
O=S(=O)(Nc1cccc2cccnc12)c1ccccc1 36.7%
CCOC(=O)C(NCc1ccccc1)(NC(=O)c1ccccc1)C(F)(F)F (stereo unspecified) 0.0509%
CC(C)N1C(=O)/C(=C/c2nc3ccccc3c(=O)n2-c2ccccc2)c2ccccc21 -21.8%
COc1ccc(/C=N/NC(=O)c2cc3c(OC)ccc(OC)c3[nH]2)cc1O -1.87%
COC(=O)[C@@H]1[C@@H](C#N)C2(c3ccccc3-c3ccccc32)N(c2ccc(Cl)cc2)N1C#N 0.249%
CC/C(=N/Nc1ccc(Cl)cc1)c1cnnc(SC)n1 -0.51%
Cc1cc(/C=C(\C#N)C(=O)N2CCCCC2)cc(C)c1O -0.53%
C/C(=N\NC(=O)COc1ccccc1-c1ccccc1)c1ccccn1 -14.3%
CCOC(=O)c1[nH]c(C)c(C(=O)c2ccc(C)cc2)c1C -3.19%
COc1ccc(OCC(O)CN2CCN(c3ccccc3)CC2)cc1 (stereo unspecified) -0.192%
Cc1ccc(S(=O)(=O)n2cc(-c3ccccc3)c3ccccc32)cc1 -3.09%
Cc1ccc2nc(SCC(=O)Nc3cc(C(F)(F)F)ccc3N3CCOCC3)[nH]c2c1 -7.54%
COC(=O)CSC1=C(C#N)C(c2ccc(C)o2)CC(=O)N1 (stereo unspecified) -0.392%
COc1cc(OC)cc(-c2cc3cc4c(cc3cn2)OCO4)c1 -7.83%
CCn1c(=S)[nH]c2cc(S(=O)(=O)N3CCOCC3)ccc21 -2.43%
COc1cc(OC)cc(C(=O)NCc2cc(C)nc3ccccc23)c1 -1.05%
O=[N+]([O-])c1ccc(O)c2ncccc12 -2.58%
CCOC(=O)C(C)Oc1cccc2c(=O)n(CC(=O)NCc3ccc4c(c3)OCO4)ccc12 (stereo unspecified) -1.37%
Cc1ccc(OCCN2C(=O)C(=O)c3cc(C)ccc32)cc1 -1.57%
Cc1ccc(CCC(=O)Nc2ncc(Cc3cccc(Cl)c3Cl)s2)o1 -2.2%
CCCc1nnc(NC(=S)Nc2ccccc2)s1 23.3%
Cc1cc(C(=O)NN)c2cc(Br)ccc2n1 -0.374%
CCOc1ccc2[nH]c(C(=O)N/N=C/c3ccc(OC)cc3)cc2c1 -3.35%
Cc1ccc(N(C)S(=O)(=O)c2ccc(-c3cnc(C4CC4)o3)cc2)cc1 -11%
CC(=O)OCC(=O)[C@@]1(O)CC[C@H]2[C@@H]3CCC4=CC(=O)C=C[C@]4(C)[C@H]3[C@@H](O)C[C@@]21C -0.34%
Cc1cn(-c2cccnc2)c(C)c1CNC[C@H]1O[C@@H](n2cnc3c(N)ncnc32)[C@H](O)[C@@H]1O -0.0853%
O=[N+]([O-])c1cc(F)c2cccnc2c1O 0.442%
O=[N+]([O-])c1cc(Cl)c(O)c2ncccc12 -1.58%
CCOc1ccc(NC(=S)N(CCc2c(C)[nH]c3ccccc23)Cc2cccnc2)cc1 -3.9%
CNC(=O)c1cccc(NC(=O)C(C)c2ccc3cc(OC)ccc3c2)c1 (stereo unspecified) -3.81%
CCc1c(C)nc(SCCOc2ccc(OC)cc2)[nH]c1=O -6.72%
CC(=O)Nc1ccc(S(=O)(=O)NCC(=O)OC(C)c2ccccc2Cl)cc1 (stereo unspecified) -1.4%
Cc1ccc(S(=O)(=O)Nc2cccc(-c3ccc4nncn4n3)c2)cc1 -1.41%
Cc1ccc(Nc2nc(-c3c(C)nc4ncccn34)cs2)cc1 -13%
CC(=O)c1ccc(Oc2cc(C)nc(-n3nc(C)cc3C)n2)cc1 -2.39%
O=C(Cc1n[nH]c(=O)c2ccccc12)OCC(=O)c1ccc2c(c1)OCCO2 -2.29%
CCCNc1ccc(C(=O)OCC)cc1[N+](=O)[O-] -0.0141%
CCN(CC)c1ccc2c(cc1=O)[C@@H](NC)CCc1cc(OC)c(OC)c(OC)c1-2 -1.8%
Cc1ccccc1-c1nc2c3ccccc3nc(=S)n2[nH]1 -8.67%
O=C(Cc1ccc(-n2c(=O)c3ccccc3n(Cc3ccc(F)cc3)c2=O)cc1)NCC1CCCO1 (stereo unspecified) -2.27%
CCOC(=O)C1=C(C)NC(C)=C(C(=O)OCC)C1C(=O)OCC(=O)NCc1ccccc1OC -0.885%
CCOC(=O)C(C)Oc1cccc2c(=O)n(CC(=O)NCc3ccc(F)cc3)ccc12 (stereo unspecified) -1.8%
CCN1C(=O)c2cccc3c(NC(=O)c4ccc(OC)c(OC)c4)ccc1c23 -6.01%
C=CCNC(=S)N/N=C/c1ccc(C)cc1C -2.82%
COc1ccc(OC)c(/C=C/c2ccc3cccc(O)c3n2)c1 27.6%
CCN(CC)S(=O)(=O)c1ccc(C(=O)NCCSc2c[nH]c3ccccc23)cc1 -2.86%
NNC(=O)c1cc2cc(OC(F)(F)F)ccc2[nH]1 0.0644%
O=C(CSc1ncccc1C(=O)O)c1ccc2ccccc2c1 -1.31%
COc1cc(C(=O)NC2CCN(Cc3nnnn3Cc3ccc(F)cc3)CC2)cc(OC)c1OC -0.678%
Cc1nnc2sc(-c3csc4c3CCCC4)nn12 -0.641%
O=C1N/C(=C/c2ccc(N3CCOCC3)o2)C(=O)N1c1cccc(Cl)c1 -6%
CCc1nc2ccccc2c(C(=O)OCc2nc3ccccc3c(=O)[nH]2)c1C -2.85%
CCc1nnc(NC(=O)CSc2nnc(-c3ccccc3NC(=O)c3ccccc3)o2)s1 -0.743%
COc1cc(C2=NOC(C(=O)NCc3ccc(F)cc3)C2)cc(OC)c1OC (stereo unspecified) -9.99%
COc1ccc(CCCC(=O)N/N=C/c2cccc(OC)c2O)cc1C -1.47%
O=c1c2c(-c3ccco3)csc2nc(SCc2cn3cccnc3n2)n1-c1ccccc1 -0.922%
CNc1nc(N)c([N+](=O)[O-])c(NCc2ccccc2)n1 0.289%
CCOc1ccc2c(c1)C(C)=CC(C)(C)N2S(=O)(=O)c1ccc(NC(C)=O)cc1 -3.37%
CCCCCC1CCC(c2n[nH]c(=S)n2C)CC1 (stereo unspecified) -5.34%
Cn1c(=O)[nH]c(=O)c2c1nc(SCC(N)=O)n2Cc1cccc(Br)c1 -8.26%
O=C(CSc1ncn[nH]1)Nc1nnc(-c2ccccc2)s1 31.6%
O=C(CN1CCC(NC(=O)Nc2ccc(F)cc2)CC1)Nc1ccccc1[N+](=O)[O-] -0.409%
CCc1ccc2oc(=O)cc(CN3CCCCC3C)c2c1 (stereo unspecified) -1.04%
Nc1ncnc2c1ncn2[C@@H]1O[C@H](CNC(=O)[C@@H]2CCCN2S(=O)(=O)c2ccc(F)cc2)[C@@H](O)[C@H]1O 0.0103%
